In the supplement of paper PMC3334620:
Whole data set: some 33,000 sequences, median “E-score (-0.5 to 0.5)” near -0.012, cut for the highest 2% near 0.27. The list shows a part of the results.

biological target: T1, Vhr1 (UniProt P40522); assay: PBM E-score (8-mer binding enrichment) (E-score (-0.5 to 0.5)); higher = stronger / more preferred TF binding; most listed sequences are background and not binding sites; details: protein concentration: 200 nM; construct: GST-full length
T1 sequence: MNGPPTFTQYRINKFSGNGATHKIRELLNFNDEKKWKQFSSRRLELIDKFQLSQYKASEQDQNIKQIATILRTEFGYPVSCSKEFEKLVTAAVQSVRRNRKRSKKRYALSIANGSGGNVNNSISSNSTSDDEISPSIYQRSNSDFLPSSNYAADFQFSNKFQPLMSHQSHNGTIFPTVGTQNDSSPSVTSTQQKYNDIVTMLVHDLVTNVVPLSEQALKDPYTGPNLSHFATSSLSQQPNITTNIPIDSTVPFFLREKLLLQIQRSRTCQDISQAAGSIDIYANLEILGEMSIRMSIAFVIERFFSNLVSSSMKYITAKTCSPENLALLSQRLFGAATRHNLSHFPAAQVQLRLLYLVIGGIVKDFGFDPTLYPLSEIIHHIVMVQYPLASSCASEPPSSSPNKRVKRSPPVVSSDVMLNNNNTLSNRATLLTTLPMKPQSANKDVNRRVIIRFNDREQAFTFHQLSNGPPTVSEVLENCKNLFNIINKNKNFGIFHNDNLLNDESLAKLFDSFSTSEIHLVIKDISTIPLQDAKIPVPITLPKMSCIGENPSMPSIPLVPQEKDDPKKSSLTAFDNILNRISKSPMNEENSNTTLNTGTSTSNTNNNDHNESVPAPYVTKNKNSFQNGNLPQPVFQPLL
Summary of the method: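 Masliner-normalised scans of fluorescent anti-GST signal were the basis for scoring. That signal came from GST-tagged yeast transcription factors applied at about 100-200 nM to double-stranded universal all-10-mer Agilent arrays on fresh or once-stripped slides. Each ungapped eight-base word, pooled with its reverse complement, received an E-score from the Universal PBM Analysis Suite.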

Sequence	PBM E-score
AGGACTTA	-0.0181
AACGGTAT	-0.212
CGCGGATC	0.0704
CGCACAGC	-0.0228
AAGGGGGC	-0.176
AGTGAAGC	-0.123
GGTAAACA	0.118
AAATCTGG	-0.00214
AGCTGAAC	-0.129
AGTTCCCC	-0.0101
AAGTAAGG	-0.158
AAAGCATC	0.037
TACTCGAA	-0.0455
ATGGGGAA	0.0181
GTGATCAC	0.245
AATCGACC	-0.119
CTGCGCGA	0.0504
ATATGTGG	0.132
AGACAACT	-0.0266
GCTTCGAA	-0.109
CGTCATAC	0.189
GAGAGAGA	-0.0265
GCCTTTAA	-0.244
AATTCGGC	-0.158
TAAGGTAA	-0.00935

Sequence	PBM E-score
GCTGCAGC	0.00163
GCGGATTA	0.00137
CGGGTTAC	-0.0592
ACTTTGCT	-0.211
CTTCAGGC	-0.108
GAGGTGTA	-0.038
CAAGGGTG	-0.054
GGAACGAA	-0.0222
ACCCCTTA	-0.107
GTGTAAGA	-0.0552
CTAGAGAG	-0.271
CTACCGTC	-0.075
AACGGATC	0.187
CGATTAGC	0.0495
ATCATTCA	0.162
CGCTAGAG	-0.0995
AGGACACT	-0.206
ACCGAGCC	0.0219
TACTAGGA	-0.0275
CCAATCGG	-0.136
CTCATCCA	0.133
TTGGGAAA	-0.0776
ATCTTACA	-0.115
CCCGGTAG	-0.00715
AGAAAAGC	-0.173

Sequence	PBM E-score
GACGAGAA	0.0532
GGCGCACA	0.00673
CGTAAAGC	-0.228
TAATATCA	0.0581
GCCGACGA	0.113
ACGTAGAC	-0.255
CGATTCGC	0.204
ACAGTAGC	0.0517
GATTGCAA	0.0914
AGATGCGC	-0.136
ACTATAAC	0.0602
CGAACTAC	0.131
CTGAGAGC	-0.118
AGAGGTCC	-0.0223
AAATCTTA	-0.0819
CTTTCGTC	-0.108
ACTATTCG	-0.0421
CTGACATA	0.0321
CGGCACTA	0.0421
CCAAGAAG	-0.144
CCGCATAA	0.188
CTTGGAGC	-0.11
GCACCTCC	-0.136
CATGGAGC	0.0853
GCCGTATA	-0.0816

Sequence	PBM E-score
CATCCGAA	0.0481
CGGCCGTC	-0.141
CACTGCCC	0.0947
AGGCGGCG	0.0356
AAAGCGGA	-0.0824
ACCCCCGG	-0.093
GGAACACA	0.0124
AAGAGCGC	-0.0393
CGTTAAAA	-0.336
ACTATCCC	-0.0165
CGGGTAAG	-0.00697
GGGACGAC	0.0124
AGCGACGA	-0.0426
TACCATAA	0.119
TACAATAA	-0.0976
GTGCCACA	-0.236
ATGTTGCA	-0.0483
AAAGGTCA	-0.173
GGGTAGCA	-0.0389
TCACCAGA	0.0739
CCCCGCTA	-0.0924
GGTCGTTA	0.0152
AGAGACCG	-0.134
GCCCAATA	0.0616
ATTGTCAC	0.0489

Sequence	PBM E-score
CCTAACCA	0.13
ACACCTAG	0.00135
CGGCACGA	0.154
CACCTATG	0.141
ACCTGTCA	0.0978
GCGTGCTA	-0.27
ATAGATGG	-0.0985
CTGCTCTA	-0.0486
CATGTTCC	-0.0214
GCTGCCTA	-0.0572
ACGGGTGC	-0.0228
AAATCTAC	-0.0558
CAATTATA	-0.0739
CGCCTTTA	-0.158
CGGTAGTA	-0.0683
CCAGTCTA	-0.16
GCTTGTGA	-0.0581
GAGCGGCC	-0.141
ACAAGCGA	0.19
CCTGATAC	0.116
CAGTGTTC	0.109
AAATCTGT	0.0348
AAAATAGT	-0.0544
ATCTCGTC	-0.115
CCACTGCG	0.174

Sequence	PBM E-score
AGCCCAAG	-0.127
AAAGCGGT	-0.08
ATGTTCGC	-0.114
GATCTCTA	-0.157
CCTTCGAC	-0.0593
ACTTAACG	-0.211
CACGCTGC	0.132
CAAGAGGC	-0.0919
AGGTCCAC	-0.176
ACGAAGAC	0.0865
CGCTCTGA	-0.106
CCCCGGTC	0.0272
ACCGTTCG	-0.0425
CATCAGCA	0.067
CGTGGCTA	-0.0862
GATCCATC	0.194
CATTGGGA	-0.137
AATCAATA	0.0533
TGCCCCCA	-0.269
CCAGTTGC	-0.0928
ATCATTAA	0.0987
TGAGAGCA	0.00884
ACAGCGAA	0.0614
CCCCTCCG	-0.0395
AACCAATA	0.115

Sequence	PBM E-score
AAGTGTTG	0.0568
AACGAACC	0.0314
TACAGTCA	0.294
AGTACTCC	0.167
CGTCAGCA	-0.11
ACACGGGC	0.0165
AATTTTCT	-0.243
AACAGTCT	-0.0629
GATCTAAC	-0.204
AATATATG	0.19
CCCGCCAC	0.321
AAAGGGCG	0.0461
TACGCCAA	-0.241
CTTCGTCA	0.0835
CGATACAC	-0.00965
CGCCGAGA	-0.0468
ATAAATCC	-0.0537
CCCGATTC	0.0194
AACAAAGT	0.155
ATTTGAAC	0.0616
ACACTGAC	0.239
CAAGCTCC	-0.168
